Experimental data as given in article PMC10163088.
No constants are given. Whether binding was seen depends on the method and setting. Binding seen in cells or lysates may run through a third protein. Some binding calls cover weakened binding; strength is not graded here. Sequences can lack the tags named with a protein. Values belong to the molecule of their own block, whether it stands above or below them.

By UniProt entry, the sequences of proteins in these tests, tags left out.
UniProt P16649: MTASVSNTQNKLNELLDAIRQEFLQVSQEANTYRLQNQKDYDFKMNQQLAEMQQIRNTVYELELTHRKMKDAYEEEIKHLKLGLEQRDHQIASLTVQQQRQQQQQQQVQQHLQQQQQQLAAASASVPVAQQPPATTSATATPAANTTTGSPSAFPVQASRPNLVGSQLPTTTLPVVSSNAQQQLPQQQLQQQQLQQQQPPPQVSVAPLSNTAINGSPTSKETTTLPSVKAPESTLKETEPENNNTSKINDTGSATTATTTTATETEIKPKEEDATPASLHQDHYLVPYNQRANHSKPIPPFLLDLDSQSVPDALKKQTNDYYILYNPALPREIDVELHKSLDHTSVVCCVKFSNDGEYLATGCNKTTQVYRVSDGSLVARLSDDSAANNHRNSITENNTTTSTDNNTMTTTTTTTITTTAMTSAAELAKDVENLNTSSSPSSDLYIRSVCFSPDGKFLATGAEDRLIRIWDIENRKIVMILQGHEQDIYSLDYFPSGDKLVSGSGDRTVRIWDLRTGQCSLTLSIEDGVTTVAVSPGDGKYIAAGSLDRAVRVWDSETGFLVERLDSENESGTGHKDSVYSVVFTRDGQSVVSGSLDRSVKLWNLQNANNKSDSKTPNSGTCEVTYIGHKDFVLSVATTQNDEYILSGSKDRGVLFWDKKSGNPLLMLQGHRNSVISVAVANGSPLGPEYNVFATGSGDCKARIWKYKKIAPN

Experiments:
[1] = molecular target: T1, GST-Dal80 length variant aa 151-200 (S. cerevisiae); experiment: pull-down; GST fusions of repressors (full-length or length variants) immobilised on GSH sepharose, incubated with bacterial total protein extracts containing HA-tagged Sin3, Cyc8 or Tup1 (or Tup1 length variants); elution with free GSH, anti-HA blot (Figs. 1, 3, 4, 5); only the target purified
T1 sequence: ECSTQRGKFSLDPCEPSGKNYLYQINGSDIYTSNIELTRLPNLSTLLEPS

[2] = molecular target: T2, GST-Gal80 (full-length) (S. cerevisiae) (UniProt P04387); experiment: as above
T2 sequence: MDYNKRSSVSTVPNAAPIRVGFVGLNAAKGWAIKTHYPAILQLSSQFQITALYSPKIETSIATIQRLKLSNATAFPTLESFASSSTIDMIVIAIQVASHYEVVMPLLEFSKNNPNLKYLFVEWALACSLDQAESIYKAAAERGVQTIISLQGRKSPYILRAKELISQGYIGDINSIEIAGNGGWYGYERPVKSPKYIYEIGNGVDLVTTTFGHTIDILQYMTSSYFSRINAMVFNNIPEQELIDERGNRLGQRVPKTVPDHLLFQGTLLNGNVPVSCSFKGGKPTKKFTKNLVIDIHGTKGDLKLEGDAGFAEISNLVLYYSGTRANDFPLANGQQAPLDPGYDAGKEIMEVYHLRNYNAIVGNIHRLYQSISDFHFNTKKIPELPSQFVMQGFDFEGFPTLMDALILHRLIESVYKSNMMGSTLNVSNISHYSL

[3] = molecular target: T3, GST-Ure2 (full-length) (S. cerevisiae) (UniProt P23202); experiment: as above
T3 sequence: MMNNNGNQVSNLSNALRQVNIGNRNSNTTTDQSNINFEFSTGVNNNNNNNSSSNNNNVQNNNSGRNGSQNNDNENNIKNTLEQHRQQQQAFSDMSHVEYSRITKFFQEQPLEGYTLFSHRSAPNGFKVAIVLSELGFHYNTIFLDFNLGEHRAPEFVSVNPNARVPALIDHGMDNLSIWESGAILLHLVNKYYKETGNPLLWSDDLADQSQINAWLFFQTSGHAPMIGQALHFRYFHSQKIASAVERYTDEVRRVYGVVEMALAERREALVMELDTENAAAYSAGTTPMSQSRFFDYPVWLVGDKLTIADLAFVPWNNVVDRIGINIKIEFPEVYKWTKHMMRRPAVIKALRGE

[4] = molecular target: T4, GST-Ure2 length variant aa 1-105 (S. cerevisiae); experiment: as above
T4 sequence: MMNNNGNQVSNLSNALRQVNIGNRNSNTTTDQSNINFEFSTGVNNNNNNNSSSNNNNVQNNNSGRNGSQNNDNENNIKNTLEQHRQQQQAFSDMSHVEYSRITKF

[5] = molecular target: T5, GST-Ure2 length variant aa 201-354 (S. cerevisiae) (UniProt P23202); experiment: as above
T5 sequence: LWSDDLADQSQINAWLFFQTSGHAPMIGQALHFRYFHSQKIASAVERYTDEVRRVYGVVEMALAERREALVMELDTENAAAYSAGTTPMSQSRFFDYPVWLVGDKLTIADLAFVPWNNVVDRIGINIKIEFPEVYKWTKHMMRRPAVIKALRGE

[6] = molecular target: T6, GST-Yox1 length variant aa 220-280 (S. cerevisiae) (UniProt P34161); experiment: as above
T6 sequence: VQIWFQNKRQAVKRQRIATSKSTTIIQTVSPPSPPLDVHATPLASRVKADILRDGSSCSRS

[7] = molecular target: GST-Dal80 (full-length) (S. cerevisiae) (UniProt P26343); experiment: pull-down; GST fusions of full-length repressors immobilised on GSH sepharose, incubated with protein extracts from yeast transformants containing epitope-tagged Sin3 length variants; anti-HA blot (Fig. 2); only the target purified
[8] = molecular target: T7, GST-Yhp1 (full-length) (S. cerevisiae) (UniProt Q04116); experiment: as above
T7 sequence: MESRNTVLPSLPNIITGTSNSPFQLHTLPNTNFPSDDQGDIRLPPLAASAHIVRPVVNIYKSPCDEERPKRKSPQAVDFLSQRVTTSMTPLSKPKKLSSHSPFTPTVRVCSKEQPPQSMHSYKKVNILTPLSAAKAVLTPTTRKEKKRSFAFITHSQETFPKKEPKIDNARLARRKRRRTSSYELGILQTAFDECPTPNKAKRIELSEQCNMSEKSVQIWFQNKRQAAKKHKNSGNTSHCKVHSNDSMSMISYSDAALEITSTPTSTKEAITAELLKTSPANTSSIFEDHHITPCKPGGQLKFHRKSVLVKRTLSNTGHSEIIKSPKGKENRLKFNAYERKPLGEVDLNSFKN

Molecule: HA3-Tup1 (full-length; pFK76) (from UniProt P16649 1-713)
binding [1]: binds
binding [2]: binds
binding [3]: binds
binding [4]: binds
binding [5]: no binding
binding [6]: binds

B1: HA3-Cyc8 (aa 1-398 with 10 TPR motifs; pFK77) (domain or fragment, UniProt P14922 1-398)
chain: MNPGGEQTIMEQPAQQQQQQQQQQQQQQQQAAVPQQPLDPLTQSTAETWLSIASLAETLGDGDRAAMAYDATLQFNPSSAKALTSLAHLYRSRDMFQRAAELYERALLVNPELSDVWATLGHCYLMLDDLQRAYNAYQQALYHLSNPNVPKLWHGIGILYDRYGSLDYAEEAFAKVLELDPHFEKANEIYFRLGIIYKHQGKWSQALECFRYILPQPPAPLQEWDIWFQLGSVLESMGEWQGAKEAYEHVLAQNQHHAKVLQQLGCLYGMSNVQFYDPQKALDYLLKSLEADPSDATTWYHLGRVHMIRTDYTAAYDAFQQAVNRDSRNPIFWCSIGVLYYQISQYRDALDAYTRAIRLNPYISEVWYDLGTLYETCNNQLSDALDAYKQAARLDVNN
binding [1]: binds
binding [2]: binds
binding [3]: binds
binding [4]: binds
binding [5]: no binding
binding [6]: binds

binding [7]: binds
binding [8]: binds
B2: epitope-tagged Sin3 length variant 1-300 (PAH1; pCW83) (domain or fragment, UniProt P22579 1-300)
chain: MSQVWHNSNSQSNDVATSNDATGSNERNEKEPSLQGNKPGFVQQQQRITLPSLSALSTKEEDRRDSNGQQALTSHAAHILGYPPPHSNAMPSIATDSALKQPHEYHPRPKSSSSSPSINASLMNAGPAPLPTVGAASFSLSRFDNPLPIKAPVHTEEPKSYNGLQEEEKATQRPQDCKEVPAGVQPADAPDPSSNHADANDDNNNNENSHDEDADYRPLNVKDALSYLEQVKFQFSSRPDIYNLFLDIMKDFKSQAIDTPGVIERVSTLFRGYPILIQGFNTFLPQGYRIECSSNPDDPI
